# The whole screen tested about 420,000 compounds, of which about 50,000 (12%) were called active. This list was built around the results that the source calls inconclusive (neither active nor inactive); the mix of calls is not that of the screen. Calls follow the shape of the dose curve; as a rule, active = well fitted inhibition curve with a large enough effect; inconclusive = small, poorly fitted or top-dose-only effect; inactive = flat fitted curve, though single readings scatter. No potency is given beside an inconclusive call; the fits are too rough.
# Test: qHTS for Inhibitors of human tyrosyl-DNA phosphodiesterase 1 (TDP1): qHTS in cells in presence of CPT; also: nearly all actives have a fitted effect of over 55% in size
# Details: chicken DT40 Tdp1-/-;hTDP1 cells + 20 nM CPT, ATP luminescence, 48 h; activity change, negative = growth inhibition: at 46.2 µM (top of the series) unless noted
# Procedure, shortened: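 Chicken DT40 Tdp1-/- cells stably complemented with human TDP1 were seeded at 400 cells/well in medium containing 20 nM camptothecin, exposed to pin-transferred compounds, and grown at 37 °C for at least 48 hr. Viability was read as ATP luminescence.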
# % is scaled to controls: 0 for no effect and ±100 for the full control effect; potency is read from the fitted curve at half-maximal effect; tags tell the direction and shape of the fitted curve.
SMILES,Potency,"activity change, negative = growth inhibition"
CCOc1cc(-c2noc(CCCC(=O)NC3CCCCC3)n2)ccc1OC,"inconclusive [inhibitor, partial curve, poor fit]",–
CCOC(=O)c1cc2c(=O)n3ccccc3nc2n(Cc2ccco2)c1=NC(=O)c1ccccc1OCC,"inconclusive [inhibitor, partial curve]",–
COCCNc1nc(NCc2cccs2)nc2ccsc12,"inconclusive [inhibitor, partial curve]",–
CCCCOc1cccc(C2/C(=C(\O)c3ccc4c(c3)OCCO4)C(=O)C(=O)N2CCN2CCOCC2)c1 (stereo not given),"inconclusive [inhibitor, single point]",–
O=C1c2ccccc2C(=O)N1CC#CCN1CCN(C(c2ccccc2)c2ccccc2)CC1,"inconclusive [inhibitor, single point]",–
CC(=O)c1nn(-c2ccccc2)cc1C(=O)c1cccc(Br)c1,–,inactive: -27.7%
COc1ccc(CCNC(=O)CN2CCN(c3cccc(Cl)c3)CC2)cc1OC,active: 20.6 µM,–
CC(=O)N/C(=N/c1nc(C)cc(C)n1)Nc1cc(C)cc(C)c1,"inconclusive [inhibitor, single point]",–
CC(=O)OC[C@@H]1CN(Cc2ccccc2)C[C@H](n2cnc3c(NCc4ccco4)ncnc32)O1,"inconclusive [inhibitor, partial curve, poor fit]",–
CC(NC(=O)CCNC(=O)c1ccc(Br)cc1)c1ccc(-n2ccnc2)cc1 (stereo not given),"inconclusive [inhibitor, single point]",–
COc1ccc(Nc2oc(/C=C/c3ccc(F)cc3)nc2C#N)cc1,"inconclusive [inhibitor, single point]",–
Cc1ccc(C2c3cccn3CCN2S(=O)(=O)c2ccc([N+](=O)[O-])cc2)cc1 (stereo not given),"inconclusive [inhibitor, single point]",–
C[n+]1ccccc1Nc1cc([N+](=O)[O-])ccc1N,–,inactive: 0.687%
COc1ccc(C(=O)NC(=S)Nc2ccc(N3CCCC3)cc2)cc1,–,inactive: -13.7%
CCOC(=O)N1CCN(c2ncnc3c2cnn3-c2ccc(OC)cc2)CC1,"inconclusive [inhibitor, partial curve, poor fit]",–
COc1cc(OC)cc(C(=O)NC2CCSc3ccccc32)c1 (stereo not given),"inconclusive [inhibitor, single point]",–
COc1ccc2nc(SC(C)C(=O)NC3(C#N)CCCCC3)[nH]c2c1 (stereo not given),"inconclusive [inhibitor, single point]",–
COC(=O)N/N=C/c1cccc(OCCSc2ccc(Cl)cc2)c1,"inconclusive [inhibitor, partial curve]",–

SMILES,Potency,"activity change, negative = growth inhibition"
COc1ccc(OC)c(N(CC(=O)NC2CCCC2)S(=O)(=O)c2ccc(OC)c(OC)c2)c1,active: 14.6 µM,–
Clc1ccc(Sc2cnc3ccccc3n2)cc1,"inconclusive [inhibitor, single point]",–
S=C(Nc1ccccc1Cl)NC1CC2CCCC(C1)N2C1CC1 (stereo not given),"inconclusive [inhibitor, single point]",–
Cc1ccccc1CC1(CO)CCCN(C(=O)c2ccoc2)C1 (stereo not given),"inconclusive [inhibitor, single point]",–
CC(C)CC(=NNC(=O)c1ccncc1)c1cc(Cl)ccc1O,active: 3.66 µM,–
COc1cccc(NC(=S)NN2CCN(C)CC2)c1,active: 29.1 µM,–
Clc1c(-c2ccccc2)nnn1-c1ccccc1,–,inactive: 4.88%
Cc1ccc(C(=O)COC(=O)COc2ccc(C)c(C)c2)cc1,–,inactive: -15%
O=S(=O)(NCCc1csc(-c2ccc(F)cc2)n1)c1ccc(F)cc1F,active: 16.4 µM,–
COC(=O)CCC(=O)OC,–,inactive: -2.04%
CCC(C(=O)N1CCN(S(=O)(=O)c2sc(C(=O)O)c(C)c2C(=O)O)CC1)c1ccccc1 (stereo not given),–,inactive: -4.51%
CCc1ccc(C(=O)/C=C/Nc2ccc(S(=O)(=O)Nc3cnc4ccccc4n3)cc2)cc1,inactive,–
CC1(c2ccc3ccccc3c2)NC(=O)N(CC(=O)N2CCC(C(N)=O)CC2)C1=O (stereo not given),–,inactive: 1.58%
CCN(CC)C(=O)[C@H]1C[C@H](CC(=O)NC(C)(C)C)C(=O)N2CCc3c([nH]c4cc(-c5ccco5)ccc34)[C@]12C,active: 23.1 µM,–
O=C(NCc1ccc(Cl)cc1)c1ccccc1Oc1ccccc1,"inconclusive [inhibitor, single point]",–
Cc1c(C(=O)NCc2ccc(F)cc2)sc2ncnc(NCC3CCCO3)c12 (stereo not given),–,inactive: -13.2% [at 9.04 µM]
CCOC(=O)N1CCN(C(=O)CCl)CC1,"inconclusive [inhibitor, single point]",–
